Measurements: the RNAGym collection of RNA variant scans (doi:10.7554/elife.90254)
Read counts are not given, so values of variants with three or more changes are uncertain.

B1: LINE1-mini (parent)
chain: GGCAGAGCUCAACACAGCGUGGCAAAGUGGCUGUGGCUAGACUGCC

Variants of: B1
Test: self-cleavage, relative activity (ratio to wild type); higher = more cleavage; in vitro, sequencing; the parent is a self-cleaving ribozyme
In the case of C10G G22A G44U, the self-cleavage is reported as 0.05. C10G G22A U32G U38C showed a self-cleavage of 0. C10G G22C C31A G36A gave a self-cleavage of 0.03. In the case of C10G G22C G27U G35C, the self-cleavage is reported as 0.01. Work on C10G G22U A24C U38A yielded a self-cleavage of 0.01. Variant C10G G22U C45A has a self-cleavage of 0.02. C10G G22U G29U U32C showed a self-cleavage of 0.01. Variant C10G G22U G33C has a self-cleavage of 0.02. With C10G G22U G33U the self-cleavage was 0.03. C10G G22U G36U showed a self-cleavage of 0.02. C10G G22U U32C G33U gave a self-cleavage of 0.01. Variant C10G G27A A39C C46A has a self-cleavage of 0.04. Variant C10G G27A C31G has a self-cleavage of 0.06. For C10G G27U C37G C45G, the self-cleavage was 0.01. With C10G G27U C42A the self-cleavage was 0.01. Work on C10G G27U G33U G44A yielded a self-cleavage of 0.02. In the case of C10G G27U G44U, the self-cleavage is reported as 0. Variant C10G G27U U38C has a self-cleavage of 0.01. C10G G29A G35C showed a self-cleavage of 0.02. Variant C10G G29A G44U has a self-cleavage of 0.04. C10G G29A U34C G35C showed a self-cleavage of 0.03. Work on C10G G29C C31A yielded a self-cleavage of 0.1. For C10G G29C C45U, the self-cleavage was 1.46. With C10G G29C G30U C45U the self-cleavage was 0.04. With C10G G29C G36C the self-cleavage was 0.01. For C10G G29U G44C, the self-cleavage was 0.06. C10G G29U U32C A39C showed a self-cleavage of 0.01. Work on C10G G29U U38G yielded a self-cleavage of 0.05. C10G G30A C45U showed a self-cleavage of 0.1. Variant C10G G30A G33U has a self-cleavage of 0.02. With C10G G30A U32G G35U the self-cleavage was 0.02. For C10G G33A C37G G40A, the self-cleavage was 0.02. C10G G33U C37U showed a self-cleavage of 0.01. C10G G33U U34A showed a self-cleavage of 0.04. For C10G G33U U34G G40C, the self-cleavage was 0.01. Variant C10G G35C U43A has a self-cleavage of 0.02. In the case of C10G G35U C45U, the self-cleavage is reported as 0.02. C10G G35U G44A gave a self-cleavage of 0.07. Work on C10G G36A C42U yielded a self-cleavage of 0.03. C10G G36A C45A gave a self-cleavage of 0.02. Variant C10G G36U A41G has a self-cleavage of 0. For C10G G36U C37G, the self-cleavage was 0.01. Variant C10G G36U C46A has a self-cleavage of 0.02. Variant C10G G40A G44A C45U has a self-cleavage of 0. In the case of C10G U20A G27U U34G, the self-cleavage is reported as 0.02. C10G U20A G29A G30C U38C C46G gave a self-cleavage of 0. C10G U20C C37A C42U G44C gave a self-cleavage of 0. Work on C10G U20C C42U yielded a self-cleavage of 0.03. Work on C10G U20C G27A U28G G33U yielded a self-cleavage of 0. Work on C10G U20C G40A yielded a self-cleavage of 0.01. Work on C10G U20G U38C yielded a self-cleavage of 0. Variant C10G U28A C42U has a self-cleavage of 0.01. Work on C10G U28A C46A yielded a self-cleavage of 0.05. C10G U28A G44U gave a self-cleavage of 0. For C10G U28C G33A, the self-cleavage was 0.06. C10G U28C G36U C42U showed a self-cleavage of 0.01. C10G U28C U32G G33A showed a self-cleavage of 0. With C10G U28G C37A C42G C45A the self-cleavage was 0.01. Work on C10G U28G G33C yielded a self-cleavage of 0.04. In the case of C10G U28G G35U C45U, the self-cleavage is reported as 0.01. In the case of C10G U32A C42A, the self-cleavage is reported as 0.01. With C10G U32A U34C the self-cleavage was 0.02. For C10G U34A C42U, the self-cleavage was 0.03. With C10G U38G C42A C46U the self-cleavage was 0. In the case of C10U A11C A14C, the self-cleavage is reported as 0.03. C10U A11C A16G showed a self-cleavage of 0.02. Work on C10U A11C A25U yielded a self-cleavage of 0.04. With C10U A11C C18A G29C the self-cleavage was 0.02. Variant C10U A11C C31A G36C U43C C45U has a self-cleavage of 0.01. For C10U A11C G19A, the self-cleavage was 0.12. Variant C10U A11C G22C has a self-cleavage of 0.02. Variant C10U A11C G44A C45A has a self-cleavage of 0.03. For C10U A11C U28C, the self-cleavage was 0.06. C10U A11C U28C C37A showed a self-cleavage of 0.02. C10U A11G C13G G40C gave a self-cleavage of 0.01. For C10U A11G C18U U20A A25C G29A U43C, the self-cleavage was 0. In the case of C10U A11G C46A, the self-cleavage is reported as 0.02. Work on C10U A11G G22C A41G yielded a self-cleavage of 0. With C10U A11G U32G G35A the self-cleavage was 0. In the case of C10U A11U A14U A26G U32G, the self-cleavage is reported as 0.02. C10U A11U A25U U34A C37U showed a self-cleavage of 0.02. Work on C10U A11U A26U G40A G44A yielded a self-cleavage of 0.03. Work on C10U A11U C13G yielded a self-cleavage of 0.05. With C10U A11U G17U the self-cleavage was 0.05. C10U A11U G22A G33C showed a self-cleavage of 0. C10U A11U U43C gave a self-cleavage of 0.01. For C10U A12C A14C A41U C46G, the self-cleavage was 0.01. Variant C10U A12C A14G G27A has a self-cleavage of 0.01. For C10U A12C G17C, the self-cleavage was 0.04. Variant C10U A12C G17U C23U G35U has a self-cleavage of 0. C10U A12C G36A gave a self-cleavage of 0.02. With C10U A12C G44A the self-cleavage was 0.03. C10U A12G A24C U38G showed a self-cleavage of 0.01. For C10U A12G C13G, the self-cleavage was 0.03. C10U A12G C18A U38A gave a self-cleavage of 0. C10U A12G U28A showed a self-cleavage of 0.02. Variant C10U A12U A16U has a self-cleavage of 0.06. C10U A12U A24U G30U gave a self-cleavage of 0.1. Work on C10U A12U G17C G35U yielded a self-cleavage of 0.11. C10U A12U G19U G30C showed a self-cleavage of 0.15. Work on C10U A12U U20G C46A yielded a self-cleavage of 0.05. Variant C10U A12U U28G G35A C45A has a self-cleavage of 0.08. With C10U A14C A16U G35C C45U the self-cleavage was 0.04. With C10U A14C C15A A16U A39G the self-cleavage was 0.01. With C10U A14C C15U the self-cleavage was 0.05. With C10U A14C C31A the self-cleavage was 0.02. In the case of C10U A14C G30A G35C C45G, the self-cleavage is reported as 0. Work on C10U A14C G33A yielded a self-cleavage of 0.04. Work on C10U A14G C18G C31U C37A G44C yielded a self-cleavage of 0.01. With C10U A14G G36U A39U the self-cleavage was 0.06. C10U A14G U20A C23U gave a self-cleavage of 0.15. For C10U A14U A16G G17A G29A U43G, the self-cleavage was 0.03. For C10U A14U A39U C46G, the self-cleavage was 0.02. For C10U A14U C18G U32G C37G, the self-cleavage was 0.04. Work on C10U A14U G21U U38A G40C yielded a self-cleavage of 0.09. C10U A14U G22C U32G G40A showed a self-cleavage of 0.02. With C10U A14U G29C the self-cleavage was 0.19. C10U A14U G29C A39U G44C gave a self-cleavage of 0.01. Work on C10U A14U U20A A24U C31G yielded a self-cleavage of 0.01. In the case of C10U A14U U20A U32G G35A C46A, the self-cleavage is reported as 0. C10U A16C C18A A39U A41U showed a self-cleavage of 0.04. C10U A16C G40C showed a self-cleavage of 0.06. With C10U A16C U20G the self-cleavage was 0.05. C10U A16G A24C U34C A39C G44A C46G showed a self-cleavage of 0. For C10U A16G A24G, the self-cleavage was 0.81. Work on C10U A16G C37G U38A C42G yielded a self-cleavage of 0. Variant C10U A16G C46U has a self-cleavage of 0.07. For C10U A16G G21U, the self-cleavage was 0.23. C10U A16G G30A U32G showed a self-cleavage of 0.03. With C10U A16G G33U the self-cleavage was 0.01. Variant C10U A16G G44A C46G has a self-cleavage of 0.06. C10U A16G U20A C42U showed a self-cleavage of 0. C10U A16U A39C showed a self-cleavage of 0.05. C10U A16U G19C U43C showed a self-cleavage of 0. C10U A16U G19U A25C A39C showed a self-cleavage of 0.01. In the case of C10U A16U G30U G35U, the self-cleavage is reported as 0.02. For C10U A24C U38G C45U, the self-cleavage was 0.01. C10U A24G C37G C46G gave a self-cleavage of 0.03. In the case of C10U A24G U38A, the self-cleavage is reported as 0.01. C10U A25C A26U C37A gave a self-cleavage of 0.02. In the case of C10U A25C C37A, the self-cleavage is reported as 0.02. For C10U A25C U34A C45A, the self-cleavage was 0.06. Variant C10U A25G C37G U43C has a self-cleavage of 0.01. Variant C10U A25G G27U has a self-cleavage of 0.3. C10U A25G G29C gave a self-cleavage of 0.19. Variant C10U A25G U28C G30U G35A has a self-cleavage of 0.02. In the case of C10U A25U G30U, the self-cleavage is reported as 0.27. C10U A25U G35U gave a self-cleavage of 0.05. Variant C10U A25U U32C C37G has a self-cleavage of 0.01. C10U A26C G30A C37A G44U C46A gave a self-cleavage of 0.02. Work on C10U A26G C37G G40U C46A yielded a self-cleavage of 0.05. Work on C10U A26G C46A yielded a self-cleavage of 0.19. With C10U A26G G29A the self-cleavage was 0.41. With C10U A26G G33C the self-cleavage was 0.01. C10U A26G G33U U38A showed a self-cleavage of 0.02. Variant C10U A26U G29C G30A has a self-cleavage of 0.74. C10U A39C A41G C46A showed a self-cleavage of 0.05. Variant C10U A39C G40A has a self-cleavage of 0.05. In the case of C10U A39U G40C, the self-cleavage is reported as 0.01. Work on C10U A41C C46A yielded a self-cleavage of 0.05. Work on C10U A41G C46A yielded a self-cleavage of 0.04. For C10U C13A A14C G30U, the self-cleavage was 0.02. C10U C13A C15U C23A gave a self-cleavage of 0. Variant C10U C13A G21C has a self-cleavage of 0.03. For C10U C13A G21C A25U G29A, the self-cleavage was 0.01. For C10U C13A G21U G30U U38C C46A, the self-cleavage was 0.03. For C10U C13G A14G C37A C45U, the self-cleavage was 0.03.
